Measured values as given in the supplement of paper PMC4604168 (melanoma cell lines).
Some of the results follow. Repeats are few or missing, and single values can be far off.

Tests used:
Experiment in all cases: cell count relative to DMSO control; melanoma cells; higher = more viable cells
Settings in all cases: library dose: standard library concentration; 72 h
[1] = system: G361
[2] = system: IPC-298
[3] = system: IST-MEL1
[4] = system: LB2518-MEL
[5] = system: LOXIMVI
[6] = system: MEL-HO
[7] = system: MZ2-MEL
[8] = system: MeWo
[9] = system: RPMI7951
[10] = system: RVH-421
[11] = system: SkMel28
[12] = system: SkMel2
[13] = system: SkMel30
[14] = system: SkMel5
[15] = system: UACC257
[16] = system: UACC62
[17] = system: WM115
[18] = system: WM1716
[19] = system: WM3526
[20] = system: WM1745
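Also: cells treated in 1,536-well plates, then fixed and DAPI-stained, with nuclei counted from automated high-throughput microscope images.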

SMILES | cell count [1] | cell count [2] | cell count [3] | cell count [4] | cell count [5] | cell count [6] | cell count [7] | cell count [8] | cell count [9] | cell count [10] | cell count [11] | cell count [12] | cell count [13] | cell count [14] | cell count [15] | cell count [16] | cell count [17] | cell count [18] | cell count [19] | cell count [20]
OCc1c[nH]c2ccccc12 [Indole-3-carbinol] + C/C(O)=C(\C#N)C(=O)Nc1cc(Br)ccc1Br [LFM-A13] (first compound 4 µM, partner dose 10 µM) | 97.3% | 94.3% | 90.4% | 94.1% | 28.8% | 93.9% | 98.3% | 75.3% | 73.8% | 106% | 72.6% | 83.8% | 102% | 110% | 90.9% | 166% | 119% | 118% | 97.1% | –
NC(=O)c1ccc(N(C(N)=O)c2c(F)cccc2F)nc1-c1ccc(F)cc1F + Cc1cc(SCc2sc(-c3ccc(C(F)(F)F)c(F)c3)nc2C)ccc1OCC(=O)O [GW0742] (first compound 2 µM, partner dose 10 µM) | 90.8% | 89.5% | 89.6% | 94.3% | 107% | 92.5% | 98.4% | 93.6% | 111% | 102% | 78.7% | 78.9% | 87.2% | 104% | 96% | 80.7% | 111% | 105% | 94.3% | –
N#CC[C@H](C1CCCC1)n1cc(-c2ncnc3[nH]ccc23)cn1 [ruxolitinib] + O=C(Oc1ccc([N+](=O)[O-])cc1)N1CCC(C(O)(c2ccc3c(c2)OCO3)c2ccc3c(c2)OCO3)CC1 [JZL184] (first compound 5 µM, partner dose 5 µM) | 76.2% | 90% | 92.8% | 134% | 113% | 85.4% | 92.7% | 91.2% | 90.8% | 86.8% | 132% | 98.8% | 116% | 54.3% | 106% | 77% | 91% | 82.8% | 101% | –
C[C@@H](N)c1ccc(C(=O)Nc2ccnc3[nH]ccc23)cc1 + Cc1cc(SCc2sc(-c3ccc(C(F)(F)F)c(F)c3)nc2C)ccc1OCC(=O)O [GW0742] (first compound 2 µM, partner dose 10 µM) | 77.5% | 98.9% | 79% | 88.4% | 74.7% | 73.8% | 69.3% | 48.3% | 61.3% | 48.2% | 87.7% | 78.5% | 61.2% | 46.1% | 67.6% | 78% | 94% | 33.9% | 80.5% | –
Cn1cnc2c(F)c(Nc3ccc(Br)cc3Cl)c(C(=O)NOCCO)cc21 [selumetinib] + O=C(Oc1ccc([N+](=O)[O-])cc1)N1CCC(C(O)(c2ccc3c(c2)OCO3)c2ccc3c(c2)OCO3)CC1 [JZL184] (first compound 0.075 µM, partner dose 5 µM) | 59.1% | 50.2% | 78.1% | 57.1% | 107% | 75.9% | 89.4% | 71.8% | 119% | 43.4% | 59.8% | 38% | 67.1% | 106% | 99.1% | 56% | 84.8% | 107% | 62.6% | –
CCCS(=O)(=O)Nc1ccc(F)c(C(=O)c2c[nH]c3ncc(Cl)cc23)c1F + C/C(O)=C(\C#N)C(=O)Nc1cc(Br)ccc1Br [LFM-A13] (first compound 0.4 µM, partner dose 10 µM) | 69.2% | 89.2% | 93.2% | 105% | 76.1% | 73.4% | 94.7% | 93.4% | 84% | 66.1% | 53.2% | 102% | 98.5% | 78.5% | 99.1% | 53% | 92.8% | 64.2% | 50.1% | –
CC(=O)O[C@@]12CO[C@@H]1C[C@H](O)[C@@]1(C)C(=O)[C@H](O)C3=C(C)[C@@H](OC(=O)[C@H](O)[C@@H](NC(=O)OC(C)(C)C)c4ccccc4)C[C@@](O)([C@@H](OC(=O)c4ccccc4)[C@H]21)C3(C)C [Docetaxel] + C[As](C)SC[C@H](NC(=O)CC[C@H](N)C(=O)O)C(=O)NCC(=O)O [Darinaparsin] (first compound 0.0005 µM, partner dose 2 µM) | 14.9% | 41.8% | 37.9% | – | 63.4% | 38.9% | – | 20.4% | 21.1% | 55.2% | 19.9% | 19.4% | 43.4% | 32.2% | 72.7% | 50.9% | 36.2% | 33.9% | 34.9% | 32.6%
CCCCCCCCc1ccc(CCC(N)(CO)CO)cc1 [fingolimod] + O=C(Oc1ccc([N+](=O)[O-])cc1)N1CCC(C(O)(c2ccc3c(c2)OCO3)c2ccc3c(c2)OCO3)CC1 [JZL184] (first compound 10 µM, partner dose 5 µM) | 0.4% | 76.3% | 9.57% | 0.425% | 14% | 7.01% | 81.2% | 5.68% | 2.66% | 7.2% | 0.432% | 1% | 6.24% | 25.9% | 59% | 7.59% | 9.45% | 7.04% | 21.7% | –
